The text below walks through data of the supplement of paper PMC10126150.

The data set deals with ATP. The data set can be described thus: switch fluorescence ratio, 500 uM ATP over buffer (Cy3 cluster intensity, sum of 5 cycles each) (fold (ratio)); higher = stronger signal-on switching upon ATP binding; sequences stand for … in TCGTCGGCAGCGTCAGATGTGTATAAGAGACAGTTTTTTTTTTTTTTTTTTTTTTTTT…TC. The settings on record: aptamer strand: ATP DNA aptamer (quencher-CACCTGGGGGAGTATTGCGGAGGAAGG + anchor), 100 nM annealed; ATP concentration: 500 uM; one replicate. In a few lines:
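Between each of five buffer/ATP cycles, the flow-cell was stripped with NaOH and re-annealed. Each cycle imaged Cy3-labelled switching-strand clusters, annealed to 100 nM quencher-labelled ATP aptamer on a modified Illumina MiSeq flow-cell, first in selection buffer and then after 15 min with 500 uM ATP at 22 °C. The fluorescence ratio is summed target-cycle over summed buffer-cycle Cy3 intensity per cluster, averaged per switch-domain sequence, with clusters outside 100-1000 RFU excluded.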

Sequences with one replicate were seen in a single cluster, so their values are uncertain.
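Further: ATP exposure 15 min at 22 °C before imaging.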

As to GACTCTATTG, the switch fluorescence ratio came out at 0.982. As for GGGATCCGAT, the switch fluorescence ratio was 1.01. In the case of AGCTTTCATG, the switch fluorescence ratio came out at 0.962. With TCTCATGCGG, the switch fluorescence ratio is 1.06. For CTCAATTAA, the switch fluorescence ratio is 1. Then CGGATCGGCC, with 0.991; and TACATGCCAG, with 1.02; and TTATGGATCC, with 0.974.

With CGGGCATCCT, the switch fluorescence ratio was 1.01. Then AATCCGGTAA, with 1.12. As for CGATCTATAA, the switch fluorescence ratio was 0.989. Regarding TCGGTGCTAT, the switch fluorescence ratio is 1.01. ATAATGGAAA: the switch fluorescence ratio amounted to 0.967. As to GGCAAATGAG, the switch fluorescence ratio was determined as 1.06. On to TACTTAATGA, for which the switch fluorescence ratio turned out to be 1.03.

With CGAGAATAAG, the switch fluorescence ratio is 0.948. On to ATGATACGTT, for which the switch fluorescence ratio was 1.04. As for CATGACACGT, the switch fluorescence ratio came to 1.01.

CATACATCAT: the switch fluorescence ratio worked out at 1.01. The result for GCAAAGGGAG reads 1. As for TTAAATGGAG, the switch fluorescence ratio turned out to be 1.01. Turning to TCGTGGCATT, the switch fluorescence ratio came out at 0.957.

With AAAGTTCTTT, the switch fluorescence ratio was found to be 0.917.

Consider TGCGTCAAAC, for which the switch fluorescence ratio stood at 1.29. For AAAGCCCGGA, the switch fluorescence ratio stood at 1.04. For the sequence TAGCCCATT, the switch fluorescence ratio came to 0.986. Turning to TAAAGTGCTA, the switch fluorescence ratio worked out at 1.01.

In the case of AGCGGTATCT, the switch fluorescence ratio amounted to 1.06.

Turning to TCCCAAGACA, the switch fluorescence ratio was 1.15. Turning to TAGGTTGGG, the switch fluorescence ratio turned out to be 0.95.

Regarding TCAATAGTCC, the switch fluorescence ratio worked out at 1.3.

GGCACTATTT: the switch fluorescence ratio is 0.997. CTAATTATAC: the switch fluorescence ratio was found to be 1.29. Turning to ATCAATCACT, the switch fluorescence ratio turned out to be 0.992. In the case of ATCATGTTGG, the switch fluorescence ratio is 0.948. Then CGTCTGATCC, with 1.07. For the sequence GCGGGCGTAG, the switch fluorescence ratio was found to be 1.04. For CACTGGAGCT, the switch fluorescence ratio was 1.08. Turning to CCCGAACGTA, the switch fluorescence ratio is 1.29.

As for ATGGTCGAGA, the switch fluorescence ratio came to 1.02. For GCCACCGATA, the switch fluorescence ratio turned out to be 1.1. The result for CCTAAGCCAT reads 1.95; that for AGTCTCCCGT, 1; that for CTTCATCGAC, 1.24. Turning to CGCTGTACTA, the switch fluorescence ratio turned out to be 2.26.

Take TGCTCTGCTT: the switch fluorescence ratio amounted to 1.04. Turning to CGTTATACTC, the switch fluorescence ratio is 5.04.

TATGCATGGT: the switch fluorescence ratio turned out to be 0.961. As for GGCTGTTATA, the switch fluorescence ratio stood at 0.976. The result for TTTTAAGTCC reads 1.07; that for TAATTTGCCG, 1.21; that for TTACCTTAGC, 1.16. On to TAAGAGTGTA, for which the switch fluorescence ratio is 1.01.

In the case of GCAATGCAC, the switch fluorescence ratio was 2.03. With GCGCAATGTA, the switch fluorescence ratio came to 1.31.

As for CCAAACGAGC, the switch fluorescence ratio was 0.923. AACACGTACT: the switch fluorescence ratio is 1.79. TCGGTGTCAG: the switch fluorescence ratio worked out at 1. Then ATGGGGCTAA, with 1.41; and GGGGCCTCT, with 1.03. For AGAAATGGCG, the switch fluorescence ratio turned out to be 0.983.

On to GAACGTCGAG, for which the switch fluorescence ratio is 0.998. In the case of AATGGTGG, the switch fluorescence ratio worked out at 0.993. As for GACACGTTAC, the switch fluorescence ratio stood at 1.86. In the case of TGACGTTGTC, the switch fluorescence ratio came to 0.989. With CGGTGTTTCT, the switch fluorescence ratio is 0.959. For the sequence GTTGGTGTCG, the switch fluorescence ratio stood at 1.02.
